Our source for the Bmax and Kd values is patent US20220172420A1.

The target of the assay is human epidermal growth factor receptor 3 (HER3) (human), P21860. The assay is described as follows: flow cytometry on HCC1569 cells, PE-labelled anti-human secondary antibody, one-site specific binding fit.

B1: Antibody-drug conjugate (10) (antibody, human IgG1, kappa)
heavy: QVQLQQWGAGLLKPSETLSLTCAVYGGSFSGYYWSWIRQPPGKGLEWIGEINHSGSTNYNPSLKSRVTISVETSKNQFSLKLSSVTAADTAVYYCARDKWTWYFDLWGRGTLVTVSSASTKGPSVFPLAPSSKSTSGGTAALGCLVKDYFPEPVTVSWNSGALTSGVHTFPAVLQSSGLYSLSSVVTVPSSSLGTQTYICNVNHKPSNTKVDKRV[… human IgG1 Fc …]
light: [… about 200 residues …]
modifications: may carry the same drug-linker on a cysteine (L chain bound to one drug molecule); position not stated; exatecan drug-linker -(Succinimid-3-yl-N)-CH2CH2-C(=O)-NH-CH2CH2-O-CH2CH2-O-CH2CH2-C(=O)-GGFG-NH-CH2CH2CH2-C(=O)-(NH-DX), joined by thioether bonds to cysteines freed by reducing the hinge disulfide bonds; average 6.2 (procedure E) or 6.4 (procedure F) drug molecules per antibody; …
B1: the Bmax worked out at 28800 and the Kd (usually the equilibrium constant for the complex coming apart) is 1.55 nM.
